PubChem BioAssay AID485294 (National Center for Advancing Translational Sciences (NCATS), 2010)
Out of some 370,000 compounds screened, about 150 (0.041%) were called active. This list was built around the results that the source calls inconclusive (neither active nor inactive); the mix of calls is not that of the screen. Calls come from the whole dose curve; as a rule, active = well fitted inhibition curve with a large enough effect; inconclusive = small, poorly fitted or top-dose-only effect; inactive = flat fitted curve, though single readings scatter. Potencies of inconclusive entries are left out as doubtful fits.

Molecular target: Beta-lactamase (Escherichia coli (strain K12)) (UniProt P00811)
Experiment: qHTS Inhibitors of AmpC Beta-Lactamase (assay with detergent); note: nearly all actives have a fitted effect of over 25% in size
Settings: AmpC hydrolysis of nitrocefin, absorbance 480 nm, 0.01% Triton; series mostly up to 114 µM
In short: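 AmpC (5.3 nM in the dispensed reagent) in 20 mM phosphate pH 7.0 with 0.01% (detergent screen) or 0.0001% Triton X-100 was preincubated with compounds for 15 min at room temperature. Nitrocefin was then added from an 800 uM solution, and hydrolysis was followed at 480 nm.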
Potency is the fitted concentration of half-maximal effect; tags give direction and shape of the fitted curve.

UniProt P00811, sequence (P00811 whole entry, looked up): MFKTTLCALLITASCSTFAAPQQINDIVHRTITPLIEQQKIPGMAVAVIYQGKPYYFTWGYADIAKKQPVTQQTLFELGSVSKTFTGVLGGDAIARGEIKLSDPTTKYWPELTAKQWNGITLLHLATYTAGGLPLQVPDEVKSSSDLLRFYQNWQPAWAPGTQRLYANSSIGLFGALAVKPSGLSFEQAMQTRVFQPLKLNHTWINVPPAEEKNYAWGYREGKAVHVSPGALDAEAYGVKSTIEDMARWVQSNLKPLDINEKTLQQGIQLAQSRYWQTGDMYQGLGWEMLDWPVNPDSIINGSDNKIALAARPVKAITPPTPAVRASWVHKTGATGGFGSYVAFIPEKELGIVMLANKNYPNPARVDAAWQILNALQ

| SMILES | Potency |
| --- | --- |
| COc1cc(C2=NOC(C(=O)Nc3ccc(C(C)=O)cc3)C2)cc(OC)c1OC (stereo not drawn) | inconclusive [inhibitor, full curve] |
| O=C(O)COc1ccc(/C=N/NC(=O)c2ccc(-c3csc(Nc4ccc(Cl)cc4)n3)cc2)cc1 | inconclusive [inhibitor, partial curve, poor fit] |
| COC(=O)c1c(-c2ccc(F)cc2)noc1N | inconclusive [inhibitor, full curve] |
| CCCN(C(=O)Cn1cnc2sc(C)c(S(=O)(=O)N3CCN(c4ncccn4)CC3)c2c1=O)c1cccc(C)c1 | inactive |
| CN1C(=O)C(CC(=O)NC2CCCCC2)SC1=Nc1ccccc1 (stereo not drawn) | inconclusive [inhibitor, single point] |
| CC1CCCCN1S(=O)(=O)c1ccc(C(=O)Nc2nnc(-c3ccco3)o2)cc1 (stereo not drawn) | inconclusive [inhibitor, full curve, poor fit] |
| O=C(N/N=C/c1c[nH]c2ccccc12)c1cc(Br)ccc1O | inactive |
| CC(C)c1ccc(S(=O)(=O)N(C)C2(C)CCS(=O)(=O)C2)cc1 (stereo not drawn) | inactive |
| CN(CC(=O)N1CCN(c2ccccn2)CC1)S(=O)(=O)c1ccccc1 | inconclusive [inhibitor, partial curve] |
| Cc1ccc(NC(=O)CC2SCCNC2=O)cc1[N+](=O)[O-] (stereo not drawn) | inactive |
| CCOC(=O)c1cc(S(=O)(=O)N2CCN(c3cc(Cl)ccc3C)CC2)[nH]n1 | inactive |
| O=c1[nH]c2ccc(Cl)cc2c(=O)n1Cc1ccco1 | inconclusive [inhibitor, partial curve, poor fit] |
| NS(=O)(=O)c1cccc(NC(=O)COC(=O)c2cc(-c3ccc(Cl)cc3)nc3ccccc23)c1 | inconclusive [inhibitor, single point] |
| Brc1ccc(CSc2nnc3ccccn23)cc1 | inactive |
| COc1ccccc1NC(=O)Nc1nc(CC(=O)NCc2c(F)cccc2F)cs1 | inconclusive [inhibitor, partial curve, poor fit] |
| O=C(NCc1cccs1)c1cc2c(s1)-c1ccccc1OC2 | inconclusive [inhibitor, full curve, poor fit] |
| Cc1ccccc1C(=O)NC=C1C(=O)OC(C)(C)OC1=O | inconclusive [inhibitor, full curve, poor fit] |
| Cn1cccc1Cc1nnc(SCC(=O)NCC2CCCO2)n1-c1ccc(F)cc1 (stereo not drawn) | inconclusive [inhibitor, full curve] |
| O=C(Nc1ccc(Cl)c(Cl)c1)N(CCCN1CCOCC1)Cc1cccs1 | inconclusive [inhibitor, partial curve] |
| COc1ccccc1-c1ocnc1C(=O)N1CCN(S(=O)(=O)c2ccc(NC(C)=O)cc2)CC1 | inactive |
| COc1ccccc1NC(=O)c1ccccc1-c1nc(-c2ccccc2OC)no1 | inactive |
| COc1ccc(CCNC(=O)C/C(C)=N/NC(=O)COc2ccc(C)cc2Br)cc1OC | inactive |

| SMILES | Potency |
| --- | --- |
| Cc1ccc(-n2c(CNc3ccc(F)cc3)nnc2SCC(=O)NCc2ccco2)cc1 | inconclusive [inhibitor, full curve, poor fit] |
| O=C(COC(=O)c1ncc(Cl)c(Cl)c1Cl)NC1CCS(=O)(=O)C1 (stereo not drawn) | inconclusive [inhibitor, full curve] |
| CCN(CC)CCCC(C)N=C(c1ccccc1)c1c(O)n(C)c(=O)n(C)c1=O (stereo not drawn) | inconclusive [inhibitor, partial curve, poor fit] |
| O=C(NCc1ccccc1)N1CCN(c2ccccc2)CC1 | inactive |
| O=C1CC(N2CCN(c3nc4ccccc4s3)CC2)C(=O)N1c1ccc(F)cc1 (stereo not drawn) | inactive |
| CNc1nnc(-c2cc3ccccc3oc2=O)s1 | inactive |
| Cc1oc(-c2ccccc2Cl)nc1CS(=O)(=O)CC(=O)NC(C)CCc1ccccc1 (stereo not drawn) | inactive |
| C[N+]1(CC#CC(O)(c2ccccc2)c2ccccc2)CCCC1 | inconclusive [inhibitor, full curve, poor fit] |
| O=C(CCS(=O)(=O)c1ccc(Br)s1)NCc1ccc2c(c1)OCO2 | inconclusive [inhibitor, single point] |
| Cc1csc(CNc2ncnc3ccc(-c4ccc5c(c4)OCCO5)cc23)c1 | inconclusive [inhibitor, full curve] |
| CCC(=O)N1N=C(c2ccc(C)o2)CC1c1ccc(OC)cc1 (stereo not drawn) | inconclusive [inhibitor, full curve, poor fit] |
| CCCCCP(=O)(O)c1ccccc1 | inconclusive [inhibitor, full curve, poor fit] |
| COc1c(Cl)cc(C(=O)Nc2ccccc2C(=O)O)cc1Cl | inconclusive [inhibitor, partial curve] |
| O=C1C2CC=CCC2C(=O)N1c1n[nH]c(Cc2ccccc2)n1 (stereo not drawn) | inconclusive [inhibitor, full curve, poor fit] |
| O=C(NCCN1CCOCC1)c1ccc(CS(=O)(=O)c2ccc(Cl)cc2)o1 | inconclusive [inhibitor, single point] |
| CC(C)(C)c1nc(SCC(=O)Nc2ccc3c(c2)OCCO3)c2ccccc2n1 | inconclusive [inhibitor, partial curve, poor fit] |
| COc1ccccc1-c1nc(-c2ccccc2)nc(N2CCN(C)CC2)c1C#N | inconclusive [inhibitor, full curve, poor fit] |
| Cn1cnnc1Sc1nc2ccccc2nc1NS(=O)(=O)c1ccccc1 | inconclusive [inhibitor, single point] |
| Cc1ccccc1NC(=O)c1ccccc1NC(=O)Cc1cccc2ccccc12 | inconclusive [inhibitor, partial curve, poor fit] |
| O=C(Nc1ccccc1N(C(=O)c1ccco1)S(=O)(=O)c1cccs1)c1ccco1 | inconclusive [inhibitor, full curve, poor fit] |
| COc1ccc(NS(=O)(=O)c2ccc3c(c2)NC(=O)CCS3)c(OC)c1 | inactive |
